Source: patent US20150247135A1 (LIGACEPT, published 2015)

Key:
HRG1β [1] = biological target: T1, HRG1β (UniProt Q02297-6 177-241, limits assumed); test: trap coated on 96 well plate, varying HRG1β, detection antibody; Std Error Kd 3.932 nM
T1 construct: Soluble ligand incubated with the coated traps; also called heregulin
T1 sequence (looked up): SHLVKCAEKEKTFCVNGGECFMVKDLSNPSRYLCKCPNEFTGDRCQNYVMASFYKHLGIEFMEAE
Description: (§1) Purified trap molecules were coated on 96 well plates and incubated with either TGFα or HRG1β. Then detection antibodies against TGFα or HRG1β were used to measure the affinity (Kd) and amount of bound ligand (Bmax).
(§2) Traps were coated on 96 well plates and incubated with varying concentrations of either TGFα or HRG1β. Detection antibodies against TGFα or HRG1β were used to measure the affinity (Kd) and amount of bound ligand (Bmax).

HRG1β [2] = biological target: T1, HRG1β; test: trap coated on 96 well plate, varying HRG1β, detection antibody; Std Error Kd 1.255 nM
Description: as §1, §2

TGFα [3] = biological target: T2, TGFα (UniProt P01135 40-89); test: trap coated on 96 well plate, varying TGFα, detection antibody; Std Error Kd 266.2 nM
T2 construct: Soluble ligand incubated with the coated traps; also called Transforming Growth Factor α
Description: as §1, §2

TGFα [4] = biological target: T2, TGFα; test: trap coated on 96 well plate, varying TGFα, detection antibody; Std Error Kd 116.3 nM
Description: as §1, §2

HRG1β [5] = biological target: T1, HRG1β; test: trap coated on 96 well plate, varying HRG1β, detection antibody; Std Error Kd 2.055 nM
Description: as §1, §2

HRG1β [6] = biological target: T1, HRG1β; test: trap coated on 96 well plate, varying HRG1β, detection antibody; Std Error Kd 3.375 nM
Description: as §1, §2

TGFα [7] = biological target: T2, TGFα; test: trap coated on 96 well plate at one half of the amount, varying TGFα, detection antibody; Std Error Kd 1208 nM
Description: as §1, §2

HRG1β [8] = biological target: T1, HRG1β; test: trap coated on 96 well plate at one half of the amount, varying HRG1β, detection antibody; Std Error Kd 2.366 nM
Description: as §1, §2

TGFα [9] = biological target: T2, TGFα; test: trap coated on 96 well plate, varying TGFα, detection antibody; Std Error Kd 149 nM
Description: as §1, §2

HRG1β [10] = biological target: T1, HRG1β; test: trap coated on 96 well plate, varying HRG1β, detection antibody; Std Error Kd 8.175 nM
Description: as §1, §2

TGFα [11] = biological target: T2, TGFα; test: trap coated on 96 well plate, varying TGFα, detection antibody; Std Error Kd 250.5 nM
Description: as §1, §2

T2 sequence (P01135 40-89 limits assumed): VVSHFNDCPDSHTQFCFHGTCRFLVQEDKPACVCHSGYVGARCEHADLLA

B1: E1/E4-Fc (construct from Example 19: ErbB4 […], ErbB1 […], fused to IgG2Fc) (Fc fusion)
chain: QSVCAGTENKLSSLSDLEQQYRALRKYYENCEVVMGNLEITSIEHNRDLSFLRSVREVTGYVLVALNQFRYLPLENLRIIRGTKLYEDRYALAIFLNYRKDGNFGLQELGLKNLTEILNGGVYVDQNKFLCYADTIHWQDIVRNPWPSNLTLVSTNGSSGCGRCHKSCTGRCWGPTENHCQTLTRTVCAEQCDGRCYGPYVSDCCHRECAGGCSGPKDTDCFACMNFNDSGACVTQCPQTFVYNPTTYQMDVNPEGKYSFGATCVKKCPR[about 250 residues omitted]VECPPCPAPPVAGPSVFLFPPKPKDTLMISRTPEVTCVVVDVSHEDPEVQFNWYVDGMEVHNAKTKPREEQFNSTFRVVSVLTVVHQDWLNGKEYKCKVSNKGLPAPIEKTISKTKGQPREPQVYTLPPSREEMTKNQVSLTCLVKGFYPSDIAVEWESNGQPENNYKTTPPMLDSDGSFFLYSKLTVDKSRWQQGNVFSCSVMHEALHNHYTQKSLSLSPGK
notes: also called E1/E4-Fc BATCH1; E1/E4-Fc BATCH 2
B1 showed a Kd (HRG1β [1]) of 23.8 nM, a Kd (HRG1β [2]) of 13.1 nM and a Kd (TGFα [3]) of 677 nM. For the same binder, the Kd (TGFα [4]) was 345 nM and the Kd (HRG1β [5]) was 17.3 nM.

B2: E1/E4-MFc (construct from Example 20: ErbB4 […], ErbB1 […], fused to IgG2Fc with C226S and C229S in the hinge) (Fc fusion)
chain: QSVCAGTENKLSSLSDLEQQYRALRKYYENCEVVMGNLEITSIEHNRDLSFLRSVREVTGYVLVALNQFRYLPLENLRIIRGTKLYEDRYALAIFLNYRKDGNFGLQELGLKNLTEILNGGVYVDQNKFLCYADTIHWQDIVRNPWPSNLTLVSTNGSSGCGRCHKSCTGRCWGPTENHCQTLTRTVCAEQCDGRCYGPYVSDCCHRECAGGCSGPKDTDCFACMNFNDSGACVTQCPQTFVYNPTTYQMDVNPEGKYSFGATCVKKCPR[about 250 residues omitted]VESPPSPAPPVAGPSVFLFPPKPKDTLMISRTPEVTCVVVDVSHEDPEVQFNWYVDGMEVHNAKTKPREEQFNSTFRVVSVLTVVHQDWLNGKEYKCKVSNKGLPAPIEKTISKTKGQPREPQVYTLPPSREEMTKNQVSLTCLVKGFYPSDIAVEWESNGQPENNYKTTPPMLDSDGSFFLYSKLTVDKSRWQQGNVFSCSVMHEALHNHYTQKSLSLSPGK
notes: also called E1/E4M-50%; E1/E4-MFc 50%
Work on B2 yielded a Kd (HRG1β [6]) of 27.8 nM, a Kd (TGFα [7]) of 1950 nM and a Kd (HRG1β [8]) of 15.5 nM. For the same binder, the Kd (TGFα [9]) was 406 nM, the Kd (HRG1β [10]) was 26.6 nM and the Kd (TGFα [11]) was 621 nM.
